# The supplement of paper PMC4604168 (melanoma cell lines)
# Some of the results follow. Single values are uncertain, as repeats are few or missing.
# Tested on: A2058
# Assay: cell count relative to DMSO control; melanoma cells; higher = more viable cells
# Conditions: library dose: low library concentration; 72 h
# 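Also: cell number obtained by counting DAPI-stained nuclei in high-throughput microscope images with image analysis software, screen run in 1,536-well plates.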
row,Compound,cell count [%]
1,"Cc1cc(SCc2sc(-c3ccc(C(F)(F)F)c(F)c3)nc2C)ccc1OCC(=O)O + Oc1cc(-c2nc(-c3ccccc3)[nH]c2-c2ccncc2)ccc1Cl [L779450] (first compound 2 µM, partner dose 0.2 µM)",114
2,"O=S(=O)(c1ccccc1)N(CC(F)(F)F)c1ccc(C(O)(C(F)(F)F)C(F)(F)F)cc1 + Cc1cc(SCc2sc(-c3ccc(C(F)(F)F)c(F)c3)nc2C)ccc1OCC(=O)O [GW0742] (first compound 1.4 µM, partner dose 2 µM)",88.7
3,"COC(=O)c1sccc1S(=O)(=O)Nc1ccc(Nc2ccccc2)cc1OC + C/C(O)=C(\C#N)C(=O)Nc1cc(Br)ccc1Br [LFM-A13] (first compound 1 µM, partner dose 2 µM)",98.1
4,"Cc1ccc(Nc2nccc(N(C)c3ccc4c(C)n(C)nc4c3)n2)cc1S(N)(=O)=O [Pazopanib] + N.N.[Cl][Pt][Cl] [cisplatin] (first compound 0.4 µM, partner dose 1.6 µM)",94.4
5,"COc1cc(Nc2ncc(F)c(Nc3ccc4c(n3)NC(=O)C(C)(C)O4)n2)cc(OC)c1OC [Tamatinib] + O=C(Oc1ccc([N+](=O)[O-])cc1)N1CCC(C(O)(c2ccc3c(c2)OCO3)c2ccc3c(c2)OCO3)CC1 [JZL184] (first compound 0.4 µM, partner dose 1 µM)",84.9

# Tested on: A375
# Assay: as above
# Conditions: library dose: low library concentration; 72 h
row,Compound,cell count [%]
1,"Cc1cc(N2CCOCC2)cc2[nH]c(-c3c(NC[C@@H](O)c4cccc(Cl)c4)cc[nH]c3=O)nc12 + O=C(Oc1ccc([N+](=O)[O-])cc1)N1CCC(C(O)(c2ccc3c(c2)OCO3)c2ccc3c(c2)OCO3)CC1 [JZL184] (first compound 0.2 µM, partner dose 1 µM)",70.4
2,"COc1cc2c(Oc3ccc4[nH]c(C)cc4c3F)ncnc2cc1OCCCN1CCCC1 [cediranib] + O=C(Oc1ccc([N+](=O)[O-])cc1)N1CCC(C(O)(c2ccc3c(c2)OCO3)c2ccc3c(c2)OCO3)CC1 [JZL184] (first compound 0.4 µM, partner dose 1 µM)",95.6
3,"CCN(CC)CCNC(=O)c1c(C)[nH]c(/C=C2\C(=O)Nc3ccc(F)cc32)c1C [sunitinib] + C[As](C)SC[C@H](NC(=O)CC[C@H](N)C(=O)O)C(=O)NCC(=O)O [Darinaparsin] (first compound 0.4 µM, partner dose 0.4 µM)",98.5
4,"COc1ccc2c(c1)CCC1C2CCC2(C)C(NCCCCCCN3C(=O)C=CC3=O)CCC12 (stereo not drawn) + C/C(O)=C(\C#N)C(=O)Nc1cc(Br)ccc1Br [LFM-A13] (first compound 0.4 µM, partner dose 2 µM)",69.9
5,"COc1cc2c(Oc3ccc4[nH]c(C)cc4c3F)ncnc2cc1OCCCN1CCCC1 [cediranib] + Cc1cc(SCc2sc(-c3ccc(C(F)(F)F)c(F)c3)nc2C)ccc1OCC(=O)O [GW0742] (first compound 0.4 µM, partner dose 2 µM)",97.8
6,"Cn1cncc1[C@@](N)(c1ccc(Cl)cc1)c1ccc2c(c1)c(-c1cccc(Cl)c1)cc(=O)n2C [tipifarnib] + Cc1cc(SCc2sc(-c3ccc(C(F)(F)F)c(F)c3)nc2C)ccc1OCC(=O)O [GW0742] (first compound 0.01 µM, partner dose 2 µM)",108
7,"O=C(Nc1ccccc1)c1cc([N+](=O)[O-])ccc1Cl + Cc1cc(SCc2sc(-c3ccc(C(F)(F)F)c(F)c3)nc2C)ccc1OCC(=O)O [GW0742] (first compound 2 µM, partner dose 2 µM)",96.9
8,"O=C(Oc1ccc([N+](=O)[O-])cc1)N1CCC(C(O)(c2ccc3c(c2)OCO3)c2ccc3c(c2)OCO3)CC1 + O=c1cc(-c2cccc3c2Sc2ccccc2S3)oc(N2CCOCC2)c1 [KU55933] (first compound 1 µM, partner dose 1 µM)",86.5
9,"C[C@]1(c2nc3c(C(N)=O)cccc3[nH]2)CCCN1 [Veliparib] + C/C(O)=C(\C#N)C(=O)Nc1cc(Br)ccc1Br [LFM-A13] (first compound 1.4 µM, partner dose 2 µM)",93.8
10,"O=C(Nc1ccccc1)c1cc([N+](=O)[O-])ccc1Cl + O=C(Oc1ccc([N+](=O)[O-])cc1)N1CCC(C(O)(c2ccc3c(c2)OCO3)c2ccc3c(c2)OCO3)CC1 [JZL184] (first compound 2 µM, partner dose 1 µM)",112
11,"CCc1ccc(CCOc2ccc(CC3SC(=O)NC3=O)cc2)nc1 (stereo not drawn) [pioglitazone] + O=C(Oc1ccc([N+](=O)[O-])cc1)N1CCC(C(O)(c2ccc3c(c2)OCO3)c2ccc3c(c2)OCO3)CC1 [JZL184] (first compound 2 µM, partner dose 1 µM)",102
12,"O=C(Nc1cc(C(F)(F)F)cc(C(F)(F)F)c1)c1cc(Cl)ccc1O + Cn1cc(C2=C(c3cn(C4CCN(Cc5ccccn5)CC4)c4ccccc34)C(=O)NC2=O)c2ccccc21 [Enzastaurin] (first compound 0.016 µM, partner dose 0.8 µM)",112
13,"Cc1ccc(Nc2nccc(N(C)c3ccc4c(C)n(C)nc4c3)n2)cc1S(N)(=O)=O [Pazopanib] + Cn1cc(C2=C(c3cn(C4CCN(Cc5ccccn5)CC4)c4ccccc34)C(=O)NC2=O)c2ccccc21 [Enzastaurin] (first compound 0.4 µM, partner dose 0.8 µM)",95.8
14,"O=C(Nc1cc(C(F)(F)F)cc(C(F)(F)F)c1)c1cc(Cl)ccc1O + N.N.[Cl][Pt][Cl] [cisplatin] (first compound 0.016 µM, partner dose 1.6 µM)",93.5
15,"O=C(Nc1cccc(Cl)c1)Nc1ncc(CCNc2ncnc3ccsc23)s1 + O=C(Oc1ccc([N+](=O)[O-])cc1)N1CCC(C(O)(c2ccc3c(c2)OCO3)c2ccc3c(c2)OCO3)CC1 [JZL184] (first compound 0.0008 µM, partner dose 1 µM)",108
16,"N#Cc1c(O)c2c(-c3ccc(-c4ccccc4O)cc3)csc2[nH]c1=O + Cc1cc(SCc2sc(-c3ccc(C(F)(F)F)c(F)c3)nc2C)ccc1OCC(=O)O [GW0742] (first compound 2 µM, partner dose 2 µM)",86.8
17,"O=C(Nc1cccc(Cl)c1)Nc1ncc(CCNc2ncnc3ccsc23)s1 + Cc1cc(SCc2sc(-c3ccc(C(F)(F)F)c(F)c3)nc2C)ccc1OCC(=O)O [GW0742] (first compound 0.0008 µM, partner dose 2 µM)",111
18,"O=C(Oc1ccc([N+](=O)[O-])cc1)N1CCC(C(O)(c2ccc3c(c2)OCO3)c2ccc3c(c2)OCO3)CC1 + Cn1cc(/C=C2\C(=O)Nc3cccnc32)c2ccccc21 [GW441756] (first compound 1 µM, partner dose 0.4 µM)",100
19,"Cn1cnc2c(F)c(Nc3ccc(Br)cc3Cl)c(C(=O)NOCCO)cc21 [selumetinib] + C[As](C)SC[C@H](NC(=O)CC[C@H](N)C(=O)O)C(=O)NCC(=O)O [Darinaparsin] (first compound 0.015 µM, partner dose 0.4 µM)",110
20,"CN(C)S(=O)(=O)c1ccc2c(c1)/C(=C/c1cc3c([nH]1)CCCC3)C(=O)N2 + Cc1cc(SCc2sc(-c3ccc(C(F)(F)F)c(F)c3)nc2C)ccc1OCC(=O)O [GW0742] (first compound 0.4 µM, partner dose 2 µM)",108
21,"C/C(O)=C(\C#N)C(=O)Nc1cc(Br)ccc1Br + CC(C)CCN1c2nc(Nc3cc(F)c(O)c(F)c3)ncc2N(C)C(=O)C1C [BID1870] (first compound 2 µM, partner dose 0.2 µM)",87.3
22,"Cc1cc(N2CCOCC2)cc2[nH]c(-c3c(NC[C@@H](O)c4cccc(Cl)c4)cc[nH]c3=O)nc12 + C/C(O)=C(\C#N)C(=O)Nc1cc(Br)ccc1Br [LFM-A13] (first compound 0.2 µM, partner dose 2 µM)",80.7
23,"CN(C)S(=O)(=O)c1ccc2c(c1)/C(=C/c1cc3c([nH]1)CCCC3)C(=O)N2 + O=C(Oc1ccc([N+](=O)[O-])cc1)N1CCC(C(O)(c2ccc3c(c2)OCO3)c2ccc3c(c2)OCO3)CC1 [JZL184] (first compound 0.4 µM, partner dose 1 µM)",109
24,"C/C(O)=C(\C#N)C(=O)Nc1cc(Br)ccc1Br + O=c1cc(-c2cccc3c2Sc2ccccc2S3)oc(N2CCOCC2)c1 [KU55933] (first compound 2 µM, partner dose 1 µM)",86.6
25,"C/C(O)=C(\C#N)C(=O)Nc1cc(Br)ccc1Br + CCCCCCCCCCCC1=C(O)C(=O)C=C(O)C1=O [Embelin] (first compound 2 µM, partner dose 1.2 µM)",106
26,"C/C(O)=C(\C#N)C(=O)Nc1cc(Br)ccc1Br + O=C(Oc1ccc([N+](=O)[O-])cc1)N1CCC(C(O)(c2ccc3c(c2)OCO3)c2ccc3c(c2)OCO3)CC1 [JZL184] (first compound 2 µM, partner dose 1 µM)",90.7
27,"N#Cc1c(O)c2c(-c3ccc(-c4ccccc4O)cc3)csc2[nH]c1=O + O=C(Oc1ccc([N+](=O)[O-])cc1)N1CCC(C(O)(c2ccc3c(c2)OCO3)c2ccc3c(c2)OCO3)CC1 [JZL184] (first compound 2 µM, partner dose 1 µM)",120
28,"Cn1nnc2c(C(N)=O)ncn2c1=O [temozolomide] + Cc1cc(SCc2sc(-c3ccc(C(F)(F)F)c(F)c3)nc2C)ccc1OCC(=O)O [GW0742] (first compound 2 µM, partner dose 2 µM)",89.4
